Measured values from paper PMC6054203.
No constants are given. Whether binding was seen depends on the method and setting. Sequences can lack the tags named with a protein.

How the values were obtained:
Assay in all cases: two-hybrid; yeast strain AH109 co-transformed with AD (pGAD.GH) and BD (pGBT9.BS) fusions; growth on SC-LWH and on SC-LWH with 0.5 and 3.0 mM 3-AT
[1] = molecular target: T1, CIPK10, two-hybrid fusion (Arabidopsis) (UniProt Q9C562)
T1 sequence: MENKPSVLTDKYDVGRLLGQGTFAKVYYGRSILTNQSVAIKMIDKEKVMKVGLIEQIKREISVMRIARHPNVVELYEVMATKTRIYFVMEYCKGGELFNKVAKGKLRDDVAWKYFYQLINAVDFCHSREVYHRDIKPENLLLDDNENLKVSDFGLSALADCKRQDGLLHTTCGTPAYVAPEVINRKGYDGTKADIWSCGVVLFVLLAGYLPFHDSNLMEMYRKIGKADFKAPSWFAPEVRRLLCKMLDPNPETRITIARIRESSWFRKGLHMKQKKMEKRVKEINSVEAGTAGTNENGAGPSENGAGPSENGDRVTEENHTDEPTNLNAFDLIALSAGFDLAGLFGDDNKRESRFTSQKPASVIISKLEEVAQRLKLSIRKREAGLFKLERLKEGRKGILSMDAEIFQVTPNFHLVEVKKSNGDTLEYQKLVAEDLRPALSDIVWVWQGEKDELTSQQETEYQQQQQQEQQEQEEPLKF

[2] = molecular target: T2, CIPK12, two-hybrid fusion (Arabidopsis) (UniProt Q9SN43)
T2 sequence: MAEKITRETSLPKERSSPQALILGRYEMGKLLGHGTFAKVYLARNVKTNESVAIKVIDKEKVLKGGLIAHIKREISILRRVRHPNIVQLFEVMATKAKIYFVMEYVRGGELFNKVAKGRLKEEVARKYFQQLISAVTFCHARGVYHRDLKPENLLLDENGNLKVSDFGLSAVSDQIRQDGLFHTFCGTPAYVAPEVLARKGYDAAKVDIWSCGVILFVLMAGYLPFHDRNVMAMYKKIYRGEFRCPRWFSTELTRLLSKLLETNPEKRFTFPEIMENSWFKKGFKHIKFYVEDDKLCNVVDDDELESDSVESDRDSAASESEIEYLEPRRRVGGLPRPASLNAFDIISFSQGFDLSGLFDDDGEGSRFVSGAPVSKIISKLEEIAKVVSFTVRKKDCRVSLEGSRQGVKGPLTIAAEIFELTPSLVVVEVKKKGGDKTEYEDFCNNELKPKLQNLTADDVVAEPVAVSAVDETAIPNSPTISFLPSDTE

[3] = molecular target: T3, CIPK14, two-hybrid fusion (Arabidopsis) (UniProt Q9LZW4)
T3 sequence: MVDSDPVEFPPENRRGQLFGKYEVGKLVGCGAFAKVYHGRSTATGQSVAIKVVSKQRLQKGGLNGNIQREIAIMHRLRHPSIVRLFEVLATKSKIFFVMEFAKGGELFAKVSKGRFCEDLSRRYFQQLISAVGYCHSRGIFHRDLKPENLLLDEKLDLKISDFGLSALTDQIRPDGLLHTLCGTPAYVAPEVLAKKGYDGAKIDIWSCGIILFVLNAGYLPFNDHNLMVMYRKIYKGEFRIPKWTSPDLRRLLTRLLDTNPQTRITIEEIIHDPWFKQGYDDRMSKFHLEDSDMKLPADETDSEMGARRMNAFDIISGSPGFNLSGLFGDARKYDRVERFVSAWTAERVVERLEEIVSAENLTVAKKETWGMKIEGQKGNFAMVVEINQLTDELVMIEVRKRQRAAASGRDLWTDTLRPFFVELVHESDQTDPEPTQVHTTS

[4] = molecular target: T4, CIPK22, two-hybrid fusion (Arabidopsis) (UniProt O80902)
T4 sequence: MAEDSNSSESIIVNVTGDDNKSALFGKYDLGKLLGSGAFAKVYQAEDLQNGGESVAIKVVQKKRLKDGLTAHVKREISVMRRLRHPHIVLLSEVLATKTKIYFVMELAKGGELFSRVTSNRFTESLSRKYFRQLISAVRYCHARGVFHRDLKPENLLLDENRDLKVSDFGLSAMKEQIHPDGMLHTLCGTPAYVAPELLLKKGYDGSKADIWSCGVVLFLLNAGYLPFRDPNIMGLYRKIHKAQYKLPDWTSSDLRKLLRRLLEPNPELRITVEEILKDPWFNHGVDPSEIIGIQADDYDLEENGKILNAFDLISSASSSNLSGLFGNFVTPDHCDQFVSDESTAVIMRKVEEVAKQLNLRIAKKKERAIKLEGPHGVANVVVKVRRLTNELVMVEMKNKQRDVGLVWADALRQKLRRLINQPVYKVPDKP

[5] = molecular target: T5, CIPK6, two-hybrid fusion (Arabidopsis) (UniProt O65554)
T5 sequence: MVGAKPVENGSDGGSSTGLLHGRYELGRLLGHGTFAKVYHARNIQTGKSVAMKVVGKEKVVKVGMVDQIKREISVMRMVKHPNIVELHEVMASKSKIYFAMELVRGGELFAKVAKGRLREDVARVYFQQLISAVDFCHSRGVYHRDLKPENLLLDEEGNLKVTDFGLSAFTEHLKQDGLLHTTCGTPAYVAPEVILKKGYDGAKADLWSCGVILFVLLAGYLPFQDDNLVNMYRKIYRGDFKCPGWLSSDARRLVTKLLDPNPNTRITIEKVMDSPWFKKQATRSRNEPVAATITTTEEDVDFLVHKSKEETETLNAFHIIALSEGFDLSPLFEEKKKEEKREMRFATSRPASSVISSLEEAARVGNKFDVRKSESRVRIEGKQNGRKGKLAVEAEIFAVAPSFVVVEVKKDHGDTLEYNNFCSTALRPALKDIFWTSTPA

Measured: binding

B1: AP2C1 (protein phosphatase 2C), two-hybrid fusion (enzyme, UniProt O80871 1-396)
chain: MSCSVAVCNSPVFSPSSSLFCNKSSILSSPQESLSLTLSHRKPQTSSPSSPSTTVSSPKSPFRLRFQKPPSGFAPGPLSFGSESVSASSPPGGVLKRKRPTRLDIPIGVAGFVAPISSSAAVAATPREECREVEREGDGYSVYCKRGRREAMEDRFSAITNLHGDRKQAIFGVYDGHGGVKAAEFAAKNLDKNIVEEVVGKRDESEIAEAVKHGYLATDASFLKEEDVKGGSCCVTALVNEGNLVVSNAGDCRAVMSVGGVAKALSSDHRPSRDDERKRIETTGGYVDTFHGVWRIQGSLAVSRGIGDAQLKKWVIAEPETKISRIEHDHEFLILASDGLWDKVSNQEAVDIARPLCLGTEKPLLLAACKKLVDLSASRGSSDDISVMLIPLRQFI
no binding: all assays above
